Among all 48,000 compounds or so, about 1,200 (2.5%) were called active. About 2% were inconclusive and are not listed.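 Rule for the calls: active = activation of at least 60% and not above a set upper limit (about 1 call in 100 departs from these limits); inconclusive = activation of 40% to 60%, or above that upper limit; inactive = activation under 40%.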 This is one part of the list.

Sequence of UniProt O75388 (O75388 whole entry, looked up): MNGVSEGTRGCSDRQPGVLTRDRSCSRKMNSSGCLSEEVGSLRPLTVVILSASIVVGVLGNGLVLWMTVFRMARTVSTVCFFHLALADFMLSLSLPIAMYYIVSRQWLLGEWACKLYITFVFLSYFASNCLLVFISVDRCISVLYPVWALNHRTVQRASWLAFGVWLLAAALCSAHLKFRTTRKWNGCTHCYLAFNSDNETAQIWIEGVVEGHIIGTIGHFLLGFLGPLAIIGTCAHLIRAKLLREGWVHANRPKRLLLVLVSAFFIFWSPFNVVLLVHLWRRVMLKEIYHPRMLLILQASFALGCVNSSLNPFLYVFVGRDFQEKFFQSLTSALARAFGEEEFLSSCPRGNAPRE

For the test, the target named is Probable G-protein coupled receptor 32 (Homo sapiens) (UniProt O75388). Kind of test: qHTS for Agonists of Human Resolvin D1 Receptor DRV1. Note: 0% is about no effect. The settings on record: CHO-K1 GPR32 beta-arrestin PathHunter luminescence, 90 min; at 76.9 µM; hits give high values; zero percent set by DMSO-only wells. The method in brief:
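Luminescent readout of beta-Gal complementation quantifies ligand-induced beta-arrestin association with GPR32 in CHO-K1 cells; 90 min compound incubation at 37 °C, detection 1 h at room temperature.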
(In general: Quantitative high-throughput screening tests each substance at several concentrations.)
For `COC(=O)CC1Oc2ccc(C)cc2-n2cc(-c3ccc(F)cc3)nc21` (stereo not drawn), the activation is inactive: 24.5%.
Next, `COC(=O)c1ccc(NC(=O)c2cccc3c2C(=O)N(C2CCCCC2)C3)cc1`: inactive: -4.04%.
Next, `CCCSCCCNC(=O)c1cc2n(n1)CCCN(Cc1ccc(C)cc1)C2=O`: inactive: -1.07%; `Cc1ccc(C)c(N2CCN(C(=O)CCn3c(=O)[nH]c4ccccc4c3=O)CC2)c1`: inactive: -15.3%.
Take `Cc1ccc(C)c(NC(=O)CSc2ncc3c(n2)-c2cc(Cl)ccc2N(Cc2ccccc2F)S3(=O)=O)c1`: the activation is inactive: 25.9%.
With `COc1ccc(N2CCN(C(=O)c3cc(NS(=O)(=O)c4ccc(F)cc4)ccn3)CC2)cc1`, the activation was inactive: 33.3%.
The same measure for `CCOc1ccc(CCNC(=O)CCN2N=C(c3ccc(OC)cc3)CCC2=O)cc1OCC`: inactive: -10.7%.
Next, `Cc1cc(Cl)ccc1NC(=O)CCn1nc(C)c2c(C)n(-c3ccccc3)nc2c1=O`: inactive: 10.5%; `Cc1cccc(OCCSc2nc3ccc(NC(=O)COc4ccccc4F)cc3s2)c1`: inactive: 25.5%.
Next, `COc1ccc(-c2oc3ncn4nc(-c5ccccc5Cl)nc4c3c2-c2ccc(OC)cc2)cc1`: inactive: -1.93%; `CC1(C)CC(=O)c2cc(-c3nc(-c4ccc(Cl)cc4)cs3)c(=O)n(-c3ccc(F)cc3)c2C1`: inactive: 8.3%; `CC(CNC1CCCCC1)OC(=O)c1ccccc1` (stereo not drawn): inactive: 3.32%.
For the molecule `COc1ccc(Cn2ccc3nc(C)c(C(=O)NCc4ccc(C)cc4)cc3c2=O)cc1`, the activation is inactive: 40.8%.
On to `Cc1cc(C)c2c(=O)c3c(oc2c1)C(=O)N(Cc1ccco1)C3c1ccc(F)cc1` (stereo not drawn), for which the activation is inactive: -2.18%.
The same measure for `Cc1ccc(Oc2nc3ccccn3c(=O)c2/C=C(\C#N)c2nc3ccccc3s2)c(C)c1`: inactive: 13.9%.
The same measure for `CCN(CC)c1cc(C)c2cc(NC(=O)/C=C/c3ccccc3OC(C)C)ccc2n1`: inactive: 18.3%; for `CCN(CC)c1ccc(NS(=O)(=O)c2ccc(-c3coc(C)n3)cc2)c(C)c1`: active: 68.4%.
The same measure for `Oc1ccccc1-c1nnco1`: inactive: -87.3%.
For `CCOc1ccc(-c2cc(C(=O)NCCc3ccccc3)c3c(-c4ccc(C)cc4)[nH]nc3n2)cc1`, the activation was inactive: 8.73%.
Regarding `O=C(NCc1ccc2c(c1)CCN2C(=O)c1ccc(Cl)cc1)c1ccco1`, the activation was inactive: -13.3%.
Next, `O=C(Cn1c(=O)n(-c2ccccc2)c(=O)c2c3c(sc21)CCCC3)Nc1ccccc1`: inactive: -0.663%.
On to `Cc1cc(-c2ccc(C)c(S(=O)(=O)N3c4ccccc4CC3C)c2)on1` (stereo not drawn), for which the activation was inactive: -22.8%.
For `Cc1nn(C)c2c1c(C(F)(F)F)cc(=O)n2CC(=O)N1CCN(c2ccccc2F)CC1`, the activation was inactive: -8.2%.
Turning to `CC(=O)N1CCc2c(sc3c2c(=O)n(-c2cccc(Cl)c2)c(=O)n3Cc2ccc(F)cc2Cl)C1`, the activation was inactive: -15%.
For the molecule `O=C(O)CSc1nnc(-c2ccc(O)cc2)o1`, the activation was inactive: 11.5%.
In the case of `CCOC(=O)c1noc2nc(C)n(CC(=O)Nc3ccc(OC)c(Cl)c3)c(=O)c12`, the activation was inactive: 22.8%.
On to `Cc1cc(N2CCC(C(=O)Nc3ccc(Cl)cc3)CC2)n2nc(C)c(-c3ccc(Cl)cc3)c2n1`, for which the activation is inactive: -18.7%.
Turning to `Cc1ccc(CC(=O)Nc2c(C(=O)N3CCN(c4ccccc4)CC3)oc3ccccc23)cc1`, the activation is inactive: -26.6%.
The same measure for `CCOC(=O)CSc1nnc2n(-c3ccccc3)c(=O)c3c4c(sc3n12)COC(C(C)C)C4` (stereo not drawn): inactive: 27.1%.
The same measure for `CCCCN(CC)CCNC(=O)C1CCN(c2nnc(C)c3c(C)n(-c4ccc(C)cc4)nc23)CC1`: inactive: -16.3%; for `Cc1ccc(Cc2c(C)nc3c(-c4ccccc4)c(C)[nH]n3c2=O)cc1`: inactive: -16.3%.
The same measure for `CCc1c(C)nc2nncn2c1NCc1ccc(OC)cc1`: inactive: 29.1%.
In the case of `Cc1cc2c(cc3c(=O)n(CC(=O)NCc4ccccc4Br)ncn32)s1`, the activation was inactive: -5.92%.
The same measure for `Cc1ccc(-n2nc(C)c3c(C(=O)O)cc(C)nc32)cc1`: inactive: 1.48%.
Next, `COC(=O)Cc1c(C)c2cc3c(c(C)c2oc1=O)OCN(CCc1ccc(OC)cc1)C3`: inactive: -25.2%.
Turning to `CCN(CCN(C)C)C(=O)C1CCN(S(=O)(=O)c2c(C)noc2/C=C/c2ccccc2F)CC1`, the activation is inactive: -18.9%.
Next, `Cc1cc(C)c2c(n1)SCCN2C(=O)Nc1ccc(C(=O)Nc2ccc(C(C)C)cc2)cc1`: inactive: -1.36%; `CCN(CC)c1ccc2cc(-c3nc(-c4cc(OC)c(OC)c(OC)c4)no3)c(=O)oc2c1`: inactive: -2.7%.
The same measure for `CCCOC(=O)c1ccc(O)cc1`: inactive: 34.1%.
The same measure for `Cc1cc(C)c(NC(=O)Cn2nnc(-c3nc(-c4ccccc4)no3)c2N)c(C)c1`: inactive: -8.88%.
Consider `COc1cc2cc(CNc3ccccc3)c(=O)n(CC(=O)Nc3cc(C)cc(C)c3)c2cc1OC`, for which the activation was inactive: -6.45%.
Next, `O=C(CCC1N=C2c3ccccc3N=C(SCc3ccc(F)cc3)N2C1=O)NC1CCCCC1` (stereo not drawn): inactive: -39.7%.
Regarding `CC(=O)c1ccc(NC(=O)c2nc3nc(C)cc(C(F)F)n3n2)cc1`, the activation is inactive: 13.6%.
Next, `CCOc1ccc(-n2nc(CO)c(C(=O)NCc3cccc(OC)c3)n2)cc1`: inactive: -5.21%; `Cc1cc(C)cc(-n2ccn(CC(=O)Nc3ccccc3F)c(=O)c2=O)c1`: inactive: -14.4%.
Next, `Cc1ccc(C)c(NC(=O)C(c2ccccc2)N2Cc3ccccc3C2=O)c1` (stereo not drawn): inactive: -12.1%.
The same measure for `COc1ccc(-c2cc(=O)oc3c4c(ccc23)OCN(Cc2cccc(OC)c2)C4)cc1`: inactive: 39.3%.
On to `COC(=O)c1ccccc1NC(=O)Cn1c(=O)n(CCCC(=O)NCc2ccccc2OC)c(=O)c2ccccc21`, for which the activation is inactive: -3.42%.
Next, `CSc1ncc(C(=O)Nc2cc(Cl)ccc2C)c(-c2ccccc2)n1`: inactive: -2.14%.
Next, `CC(=O)N1CCCc2cc(S(=O)(=O)N3CCN(c4cccc(C(F)(F)F)c4)CC3)ccc21`: inactive: -23.6%.
Next, `COc1ccccc1NC(=O)C1CCN(c2cnccn2)CC1`: inactive: -19.4%; `Cc1ccc(-c2cc(C(F)(F)F)nn2-c2ccc(S(N)(=O)=O)cc2)cc1`: inactive: 2.49%; `Cc1ccc(NC(=O)C2CCC(CNS(=O)(=O)c3ccc4c(c3)CCCC(=O)N4)CC2)c(C)c1` (stereo not drawn): inactive: -17.7%.
